{"source": "the supplement of paper PMC3724861", "note": "The list shows a part of the results."}
{"test_system": "T1, Caupolican (Caup) homeodomain DNA-binding domain", "T1 sequence": "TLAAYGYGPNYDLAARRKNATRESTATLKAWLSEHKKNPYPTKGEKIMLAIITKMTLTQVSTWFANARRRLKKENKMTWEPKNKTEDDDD", "assay": "PBM E-score (8-mer, recovered from the published 9-mer minima) (E-score (dimensionless, -0.5 to 0.5)); Drosophila protein; higher = stronger relative binding preference, active = 0.31 or more", "summary_of_the_method": "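Caup's homeodomain DNA-binding domain (residues 214-303) was produced by in vitro transcription and translation and applied at 100 nM to custom-designed protein binding microarrays. Each value is an enrichment score giving relative binding preference for a short DNA word; higher means stronger. Published 9-mer scores were the minimum of their two constituent 8-mer scores, and the 8-mer values were recovered from those minima. A cutoff of 0.31 marks candidate binding sequences.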"}
{"sequence": "ACGATTAA", "PBM E-score": "inactive: 0.0321"}
{"sequence": "ACCTGAGC", "PBM E-score": "inactive: -0.0467"}
{"sequence": "ACGGCCTA", "PBM E-score": "≥ -0.041"}
{"sequence": "AAAGGTGG", "PBM E-score": "inactive: -0.0535"}
{"sequence": "CGGTGCCA", "PBM E-score": "inactive: -0.31"}
{"sequence": "CTGCGCGC", "PBM E-score": "inactive: -0.182"}
{"sequence": "GTATTACA", "PBM E-score": "inactive: 0.288"}
{"sequence": "AACTATCA", "PBM E-score": "inactive: 0.108"}
{"sequence": "AAAGCCCG", "PBM E-score": "inactive: -0.156"}
{"sequence": "TACCTGAA", "PBM E-score": "inactive: 0.157"}
{"sequence": "ACAGACCC", "PBM E-score": "inactive: -0.0272"}
{"sequence": "AGTGGATG", "PBM E-score": "inactive: 0.0539"}
{"sequence": "AACAAGAA", "PBM E-score": "active: 0.321"}
{"sequence": "AATTACCG", "PBM E-score": "inactive: 0.0136"}
{"sequence": "AACATTCG", "PBM E-score": "inactive: 0.152"}
{"sequence": "GTTCAGAA", "PBM E-score": "inactive: 0.0829"}
{"sequence": "AATCATAG", "PBM E-score": "inactive: 0.129"}
{"sequence": "ATATTGAA", "PBM E-score": "inactive: 0.11"}
{"sequence": "CAAACGAG", "PBM E-score": "inactive: 0.111"}
{"sequence": "CAACAGCA", "PBM E-score": "inactive: 0.0674"}
{"sequence": "CAGCGGAG", "PBM E-score": "inactive: -0.162"}
{"sequence": "ACCTTCGC", "PBM E-score": "inactive: -0.126"}
{"sequence": "CACGAGTC", "PBM E-score": "inactive: 0.00034"}
{"sequence": "CTCTAATC", "PBM E-score": "inactive: -0.00615"}
{"sequence": "GACCGGAC", "PBM E-score": "inactive: -0.106"}
{"sequence": "AGCTGCGA", "PBM E-score": "inactive: -0.146"}
{"sequence": "GCCATTCA", "PBM E-score": "inactive: -0.111"}
{"sequence": "GCTGATGA", "PBM E-score": "inactive: 0.0175"}
{"sequence": "ATTCTTTG", "PBM E-score": "inactive: 0.0835"}
{"sequence": "ATTAAGGA", "PBM E-score": "inactive: -0.0472"}
{"sequence": "ATCCCCAC", "PBM E-score": "inactive: -0.0707"}
{"sequence": "ATGTCTTC", "PBM E-score": "inactive: 0.196"}
{"sequence": "CCAGGGAC", "PBM E-score": "inactive: -0.134"}
{"sequence": "ACCCAAAC", "PBM E-score": "inactive: -0.00737"}
{"sequence": "CTAGTGAA", "PBM E-score": "inactive: 0.0255"}
{"sequence": "CCGACTAC", "PBM E-score": "inactive: -0.0301"}
{"sequence": "ATCGACGA", "PBM E-score": "inactive: 0.0131"}
{"sequence": "CACCACTG", "PBM E-score": "inactive: -0.105"}
{"sequence": "CTTGCGCC", "PBM E-score": "inactive: -0.178"}
{"sequence": "CAGGTCCA", "PBM E-score": "inactive: 0.0178"}
{"sequence": "ACGAAGCG", "PBM E-score": "inactive: -0.0848"}
{"sequence": "GTGACCGA", "PBM E-score": "inactive: -0.0686"}
{"sequence": "GACCGACC", "PBM E-score": "inactive: -0.0698"}
{"sequence": "GGTAGACC", "PBM E-score": "inactive: -0.103"}
{"sequence": "AGTACGTA", "PBM E-score": "inactive: 0.182"}
{"sequence": "CAAAGTGG", "PBM E-score": "inactive: -0.127"}
{"sequence": "GTTCGTGA", "PBM E-score": "inactive: 0.0372"}
{"sequence": "AGCGCCCT", "PBM E-score": "inactive: -0.187"}
{"sequence": "AAGAGGCC", "PBM E-score": "inactive: -0.216"}
{"sequence": "CAGCATAG", "PBM E-score": "inactive: 0.0339"}
{"sequence": "CAGAGTCG", "PBM E-score": "inactive: -0.0689"}
{"sequence": "AGGTCTTA", "PBM E-score": "inactive: 0.0249"}
{"sequence": "ATGTAAAG", "PBM E-score": "active: 0.317"}
{"sequence": "CGCCATAG", "PBM E-score": "inactive: -0.136"}
{"sequence": "ATAGCACC", "PBM E-score": "inactive: -0.0186"}
{"sequence": "CGGCCATA", "PBM E-score": "inactive: -0.124"}
{"sequence": "ACGCAATG", "PBM E-score": "inactive: 0.0404"}
{"sequence": "CTCGGCGC", "PBM E-score": "inactive: -0.213"}
{"sequence": "CACGGTGA", "PBM E-score": "inactive: 0.0751"}
{"sequence": "GAGACCTC", "PBM E-score": "inactive: -0.172"}
{"sequence": "AACCGTGA", "PBM E-score": "inactive: 0.0248"}
{"sequence": "ACACACGC", "PBM E-score": "inactive: 0.205"}
{"sequence": "CGCCAAGC", "PBM E-score": "inactive: -0.21"}
{"sequence": "ACCTCGCA", "PBM E-score": "≥ -0.0388"}
{"sequence": "CGGCTCTA", "PBM E-score": "≥ -0.0637"}
{"sequence": "ACCAATAT", "PBM E-score": "≥ 0.149"}
{"sequence": "AAGGAGTG", "PBM E-score": "inactive: -0.0683"}
{"sequence": "ATGTACCG", "PBM E-score": "inactive: 0.287"}
{"sequence": "CAGACTAA", "PBM E-score": "inactive: 0.0303"}
{"sequence": "AAGAGACG", "PBM E-score": "inactive: -0.0512"}
{"sequence": "AGTACGCA", "PBM E-score": "inactive: 0.0016"}
{"sequence": "ACTTGTTG", "PBM E-score": "inactive: 0.29"}
{"sequence": "CTTACCCC", "PBM E-score": "inactive: -0.277"}
{"sequence": "CTCAGAAA", "PBM E-score": "inactive: -0.0399"}
{"sequence": "ATTATGGG", "PBM E-score": "inactive: 0.0116"}
{"sequence": "CATGACGC", "PBM E-score": "inactive: 0.032"}
{"sequence": "ACTTCTGC", "PBM E-score": "inactive: -0.00527"}
{"sequence": "CCCCCTCG", "PBM E-score": "inactive: -0.329"}
{"sequence": "GTCTGCTA", "PBM E-score": "≥ 0.0631"}
{"sequence": "ATAGAATA", "PBM E-score": "≥ 0.185"}
{"sequence": "AAGGAGGC", "PBM E-score": "inactive: -0.198"}
{"sequence": "CAAGACCA", "PBM E-score": "inactive: 0.042"}
{"sequence": "CAGGAGAG", "PBM E-score": "inactive: -0.0531"}
{"sequence": "AGGGTGTC", "PBM E-score": "inactive: 0.041"}
{"sequence": "AGAGCAAA", "PBM E-score": "inactive: 0.0279"}
{"sequence": "CCAAGAGG", "PBM E-score": "inactive: -0.13"}
{"sequence": "AGAGATAC", "PBM E-score": "inactive: 0.0674"}
{"sequence": "ATCTATCA", "PBM E-score": "inactive: 0.118"}
{"sequence": "CTGCAACA", "PBM E-score": "inactive: 0.104"}
{"sequence": "CCTGTGTA", "PBM E-score": "inactive: 0.283"}
{"sequence": "AAGATATA", "PBM E-score": "inactive: 0.172"}
{"sequence": "CCCTCGAC", "PBM E-score": "inactive: -0.156"}
{"sequence": "CGCGGGGA", "PBM E-score": "inactive: -0.136"}
{"sequence": "ACCCGTAA", "PBM E-score": "inactive: 0.045"}
{"sequence": "AATACTAT", "PBM E-score": "inactive: 0.157"}
{"sequence": "GCAAAACA", "PBM E-score": "inactive: 0.138"}
{"sequence": "GTCATTCA", "PBM E-score": "inactive: 0.0789"}
{"sequence": "GTACGTAC", "PBM E-score": "inactive: 0.164"}
{"sequence": "GACTTGGC", "PBM E-score": "inactive: -0.165"}
{"sequence": "GAGCCTTA", "PBM E-score": "inactive: -0.104"}
{"sequence": "ATGACAAG", "PBM E-score": "active: ≥ 0.378"}
{"sequence": "CGTCGGCC", "PBM E-score": "inactive: -0.224"}
{"sequence": "CGGACCCG", "PBM E-score": "inactive: -0.218"}
{"sequence": "ACCTCATC", "PBM E-score": "inactive: -0.077"}
{"sequence": "CGGGCTTA", "PBM E-score": "inactive: -0.126"}
{"sequence": "AACTGTAA", "PBM E-score": "inactive: 0.197"}
{"sequence": "CCCGGAAC", "PBM E-score": "inactive: -0.104"}
{"sequence": "GAGGCCGC", "PBM E-score": "inactive: -0.208"}
{"sequence": "CTACCATC", "PBM E-score": "inactive: -0.0129"}
{"sequence": "ATCTCATA", "PBM E-score": "inactive: 0.0234"}
{"sequence": "AGAGCTTA", "PBM E-score": "inactive: -0.126"}
{"sequence": "CGCATTAC", "PBM E-score": "inactive: 0.118"}
